Results published in the supplement of paper PMC4967469.

Tests used:
Experiment in all cases: Viability of human cancer cell lines after 72 h of drug (GDSC screen)
CP466722 = compound: COc1cc2ncnc(-n3nc(-c4ccccn4)nc3N)c2cc1OC [CP466722]; settings: top dose 16 µM; top dose inferred
Description: (§1)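 Human cancer cell lines in 384-well plates, medium with 10% serum, drug for 72 h over a 256-fold dose range (nine 2-fold or five 4-fold steps up to the top dose). Adherent lines were fixed and stained with the nucleic acid dye Syto60, suspension lines read with resazurin; signal relative to control wells, capped at 0 and 100%. One two-parameter sigmoid per drug and line, fitted in a mixed model over all curves with the slope shared within a line.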

QL-X-138 = compound: C=CC(=O)Nc1cc(-n2c(=O)ccc3cnc4ccc(-c5cn[nH]c5)cc4c32)ccc1C [QL-X-138]; settings: top dose 10.24 µM; top dose inferred
Description: as §1

CMK = compound: Cc1ccc(-c2c(C(=O)CCl)n(CCCO)c3ncnc(N)c23)cc1 [CMK]; settings: top dose 4 µM; top dose inferred
Description: as §1

KU-55933 = compound: O=c1cc(-c2cccc3c2Sc2ccccc2S3)oc(N2CCOCC2)c1 [KU-55933]; settings: top dose 10 µM
Description: as §1

MPS-1-IN-1 = compound: COc1cc(N2CCC(O)CC2)ccc1Nc1cc(Nc2ccccc2S(=O)(=O)C(C)C)c2cc[nH]c2n1 [MPS-1-IN-1]; settings: top dose 20 µM; top dose inferred
Description: as §1

(5Z)-7-Oxozeaenol = compound: COc1cc(O)c2c(c1)/C=C/C[C@H](O)[C@H](O)C(=O)/C=C\C[C@H](C)OC2=O [(5Z)-7-Oxozeaenol]; settings: top dose 10 µM; top dose inferred
Description: as §1

GSK269962A = compound: CCn1c(-c2nonc2N)nc2cnc(Oc3cccc(NC(=O)c4ccc(OCCN5CCOCC5)cc4)c3)cc21 [GSK269962A]; settings: top dose inferred
Description: as §1

Thapsigargin = compound: C/C=C(/C)C(=O)O[C@H]1C(C)=C2[C@H]([C@@H]1OC(=O)CCCCCCC)[C@@](C)(OC(C)=O)C[C@H](OC(=O)CCC)[C@@]1(O)[C@H]2OC(=O)[C@@]1(C)O [Thapsigargin]; settings: top dose 0.512 µM; top dose inferred
Description: as §1

Zibotentan = compound: COc1nc(C)cnc1NS(=O)(=O)c1cccnc1-c1ccc(-c2nnco2)cc1 [Zibotentan]; settings: top dose 20 µM; top dose inferred
Description: as §1

ABT-869 = compound: Cc1ccc(F)c(NC(=O)Nc2ccc(-c3cccc4[nH]nc(N)c34)cc2)c1 [ABT-869]; settings: top dose 1.024 µM; top dose inferred
Description: as §1

CHIR-99021 = compound: Cc1cnc(-c2cnc(NCCNc3ccc(C#N)cn3)nc2-c2ccc(Cl)cc2Cl)[nH]1 [CHIR-99021]
Description: as §1

[1] = top dose 2.5 µM, screen: GDSC drug entry 127
[2] = top dose 5 µM, screen: GDSC drug entry 1192
[3] = top dose 2.56 µM, screen: GDSC drug entry 154
[4] = top dose 10 µM, screen: GDSC drug entry 1241, top dose inferred

Cell Line | AUC (CP466722) | IC50 (CP466722) [µM] | AUC (QL-X-138) | IC50 (QL-X-138) [µM] | AUC (CMK) | IC50 (CMK) [µM] | AUC (KU-55933) | IC50 (KU-55933) [µM] | AUC (MPS-1-IN-1) | IC50 (MPS-1-IN-1) [µM] | AUC ((5Z)-7-Oxozeaenol) | IC50 ((5Z)-7-Oxozeaenol) [µM] | AUC (GSK269962A; [1]) | IC50 (GSK269962A; [1]) [µM] | AUC (GSK269962A; [2]) | IC50 (GSK269962A; [2]) [µM] | AUC (Thapsigargin) | IC50 (Thapsigargin) [µM] | AUC (Zibotentan) | IC50 (Zibotentan) [µM] | AUC (ABT-869) | IC50 (ABT-869) [µM] | AUC (CHIR-99021; [3]) | IC50 (CHIR-99021; [3]) [µM] | AUC (CHIR-99021; [4]) | IC50 (CHIR-99021; [4]) [µM]
ES3 (Ewing sarcoma, adherent) | 0.742 | 5.13 | 0.502 | 0.649 | 0.96 | > 4 | 0.928 | > 10 | 0.804 | 10.6 | 0.787 | 4.6 | 0.973 | > 2.5 | 0.783 | 2.22 | 0.317 | 0.00957 | 0.983 | > 20 | 0.983 | > 1.02 | 0.981 | > 2.56 | 0.825 | 6.44
H-EMC-SS (chondrosarcoma, adherent) | 0.757 | 7.05 | 0.781 | 5.59 | 0.928 | > 4 | 0.981 | > 10 | 0.727 | 6.81 | – | – | 0.938 | > 2.5 | – | – | 0.348 | 0.0106 | 0.969 | > 20 | 0.972 | > 1.02 | 0.97 | > 2.56 | – | –
HCE-4 (oesophagus, adherent) | 0.919 | > 16 | 0.992 | > 10.2 | 0.891 | 3.48 | – | – | 0.992 | > 20 | 0.599 | 1.12 | – | – | 0.859 | 3.23 | 0.217 | 0.00557 | 0.992 | > 20 | 0.988 | > 1.02 | 0.992 | > 2.56 | 0.991 | > 10
HEL (acute myeloid leukaemia, semi-adherent) | 0.646 | 2.34 | 0.695 | 2.02 | 0.943 | > 4 | – | – | 0.868 | 13.3 | 0.738 | 2.58 | 0.936 | > 2.5 | 0.96 | > 5 | 0.562 | 0.0458 | 0.981 | > 20 | 0.991 | > 1.02 | 0.969 | > 2.56 | 0.852 | 5.8
HT-144 (melanoma, adherent) | 0.978 | > 16 | 0.978 | > 10.2 | 0.777 | 1.8 | 0.963 | > 10 | 0.959 | > 20 | 0.232 | 0.0933 | 0.885 | > 2.5 | 0.885 | > 5 | 0.17 | 0.00273 | 0.982 | > 20 | 0.974 | > 1.02 | 0.964 | > 2.56 | 0.851 | 9.03

A lower IC50 marks a more sensitive line; fits outside the tested doses are given as limits. AUC sums up the same curve from the lowest dose to the 256-fold higher top dose; it is 1 without any effect and falls as sensitivity rises. For some of these results: Any top dose called inferred is not printed in the source and was worked back from the curve model. For some of these results: Where an entry number is given, a second screen of the drug exists; the two often differ.
